From ChEMBL document CHEMBL4888484, “Replenishing the malaria drug discovery pipeline: Screening and hit evaluation of the MMV Hit Generation Library 1 (HGL1) against asexual blood stage Plasmodium falciparum ,using a nano luciferase reporter read-out” (2022)
Screen size: about 150,000 compounds; about 540 (0.36%) showed an effect of 50% or more. This is one part of the list.

Tested on: Plasmodium falciparum
Test: Primary screen in NF54 nanoGlo assay, in single point, at 2uM, 72h; a lower Z score goes with more inhibition
Format: functional, Erythrocyte
Conditions: timepoint 72 hour

| SMILES | % Inhibition [%] | Z score |
| --- | --- | --- |
| Cc1[nH]c(=O)[nH]c(=O)c1S(=O)(=O)N1CCCCCC1 | -5 | 1.09 |
| CC(=O)Nc1ccc(C(=O)NCc2nnc(C(=O)Nc3ccc(F)cc3)s2)cc1 | 6 | -1.05 |
| COc1ccc(NC(=O)C2(NC(=O)[C@H]3CC(=O)N(C(C)C)C3)CCCC2)cc1OC | -11 | 1.26 |
| COc1cc(CC(=O)N(C)Cc2nnc(C3CC3)n2C)ccc1Cl | -7 | 0.96 |
| OCC[C@H]1CCCCCN1Cc1cn2cccnc2n1 | -5 | 0.49 |
| CC(C)(CC(=O)N1CC2(CCOCC2)c2ccc(Br)cc21)C(=O)O | 29 | -3.25 |
| Cc1cc(C)nc(N[C@@H](Cc2ccccc2)C(=O)N2CCOCC2)n1 | -10 | 1.26 |
| Cc1cnc(NC(=O)Cc2c(C)nn(-c3ccc(Cl)cc3Cl)c2C)s1 | -7 | 0.97 |
| CC(=O)c1c(F)cccc1N1CC[C@H](OCc2ccncc2)C1 | -6 | 0.84 |
| Cc1cc2ncc(CNCc3ccc(-n4cncn4)nc3)cn2n1 | -16 | 2.3 |
| CC1CCN(C[C@H]2CCCN(C(=O)c3ccoc3)CC2)CC1 | -1 | 0.13 |
| Cc1cc(-n2nc(C)nc2-c2ccccc2N(C)C)ccn1 | -24 | 2.47 |
| Cc1nc(C)c(C(=O)NC[C@H]2CCCN(C(=O)c3n[nH]c4c3CCCC4)C2)s1 | 0 | 0.02 |
| O=C(NC(=O)c1cccc(C(F)(F)F)c1)OC[C@@H]1CCCN2CCCCC12 (stereo partly specified) | -14 | 1.86 |
| Cc1nc(Cc2c(C)noc2C)n(-c2ccc(F)cc2F)n1 | 6 | -0.77 |
| CC1CCC(C)(C(=O)N[C@H]2CCOC3(CC(C(=O)O)C3)C2)CC1 (stereo partly specified) | -7 | 1.33 |
| COc1ccc(Cl)cc1NC(=O)Cn1c(=O)n(Cc2ccc(C(=O)NCc3ccc4c(c3)OCO4)cc2)c(=O)c2ccccc21 | -2 | 0.27 |
| COc1c(CNCc2ccnc(-n3ccnc3C)c2)c(C)nn1C | -12 | 0.98 |
| COCCNC(=O)NC(=O)CN(C)Cc1ccc(C)o1 | 1 | -0.06 |
| CC(C)(C(=O)Nc1cc2ccc(Br)cn2n1)S(=O)(=O)C1CC1 | -2 | 0.24 |
| CCC[C@H](NCC(C)C)C(=O)Nc1c(C)cc(C)cc1C | -17 | 2.2 |
| CC(C)CN(CC(C)C)c1ccc(NS(=O)(=O)c2cccs2)cc1C(=O)O | -12 | 1.52 |
| CC(=O)N1CCN(Cc2ccccc2N[C@@H](C)C2CCC2)CC1 | 32 | -3.62 |
| CCCNC(=O)NCc1cc(-c2cccnc2)nn1C | 19 | -2.37 |
| CN(C)Cc1ccccc1CN(C)C(=O)c1cccc(-c2ccco2)c1 | -6 | 1.13 |
| O=C(Nc1ccccc1)N1CCc2scc[n+]2-c2ccccc21 | 37 | -4.73 |
| Cc1nn(C)c(C)c1S(=O)(=O)N1CCC(N2CCc3sccc3C2)CC1 | 11 | -1.75 |

| SMILES | % Inhibition [%] | Z score |
| --- | --- | --- |
| CO[C@H]1[C@H](NC(=O)Cc2ccccc2)c2ccccc2C12CCN(Cc1cccc3nccnc13)CC2 | -5 | 0.65 |
| Cc1cc(N)nc(CNc2ccc(Cl)cc2)n1 | -10 | 1.38 |
| O=C(Nc1ccc2c(c1)OCCCO2)c1ccc2ccccc2n1 | -15 | 2.07 |
| CN(C)CCN(CCO)C(=O)NCc1cccc(F)c1F | 6 | -0.89 |
| COCCCNC(=O)c1cc(Cl)c[nH]1 | -4 | 0.69 |
| CN1CCC[C@@H]1CNC(=O)c1nnc2ccccc2n1 | -2 | 0.35 |
| Cc1ccc(Oc2ccc(N(C)S(=O)(=O)c3ccc(OC(F)(F)F)cc3)cc2)nn1 | 5 | -0.62 |
| CCN(CCCN1C(=O)NC(C)(C)C1=O)Cc1ccco1 | 4 | -0.49 |
| Cc1nc(Cn2nccc2-c2ccncc2)cs1 | -11 | 1.74 |
| CC(=O)Oc1c(-c2ccc(NC(=O)c3ccc(F)cc3)cc2)c(-c2ccc(F)cc2)nn1-c1ccc(F)cc1 | -6 | 0.79 |
| O=C1NC2(CCN(Cc3cccc(F)c3F)CC2)Nc2ccc(Br)cc21 | -12 | 2.05 |
| FC(F)(F)c1cc(N2CC[C@H](CN3CCCC3)C2)ccn1 | 4 | -0.77 |
| Cc1ccc(-n2cccn2)cc1NC(=O)N1CCN(c2ccncc2Cl)CC1 | -9 | 1.32 |
| O=C(c1cc2c(s1)CCCCC2)N1CCN(c2nccs2)CC1 | -10 | 1.95 |
| Cc1ccc2c(c1C)NC(=O)C21NC(CCC(N)=O)[C@H]2C(=O)N(Cc3ccc(F)cc3)C(=O)[C@H]21 (stereo partly specified) | 0 | -0.01 |
| Cc1nc2c(s1)[C@@H](NCc1ccnc(OCC3CC3)c1)CCC2 | -16 | 1.86 |
| COC(=O)C1CC(Oc2ccc(Cl)cc2)CN1 (stereo unspecified) | 10 | -1.19 |
| Cc1cc2c(cc1CNC(=O)c1ccc(F)cc1)OCCCO2 | -4 | 0.64 |
| O=C(CCC1CCCC1)NCc1ccc(Cn2ccnc2)cc1 | -15 | 2.47 |
| Cc1ccc(-c2nc3ccc(Oc4ccc(N)cc4)cc3nc2-c2ccc(C)cc2)cc1 | -2 | 0.38 |
| O=C(NCCn1ccnc1)NCC1(Cc2ccccc2)CCC1 | 8 | -1 |
| O=C(NCCCO)c1cn2c3c(cccc3c1=O)CCC2 | 7 | -1.03 |
| CN1C(=O)CCC(c2nc(-c3nccc4ccccc34)no2)C1c1cnn(C)c1 (stereo unspecified) | 3 | -0.4 |
| O=C(CN(C[C@H]1CCCO1)C(=O)C1CC=CC1)N1CCCC1 | -4 | 0.41 |
| Cc1noc(C)c1S(=O)(=O)NC[C@H](O)c1ccc(-c2ccsc2)cc1 | 8 | -1.13 |
| COCCCN(CC(=O)N(Cc1cccn1Cc1ccc(Br)cc1)C1CCCCC1)C(=O)N(C)C | -13 | 2.42 |
